Residue numbers refer to the chain shown, from its start. Some of the results follow.
T1: RBFOX1 RRM (Homo sapiens, UniProt Q9NWB1 109-208)
T1 sequence: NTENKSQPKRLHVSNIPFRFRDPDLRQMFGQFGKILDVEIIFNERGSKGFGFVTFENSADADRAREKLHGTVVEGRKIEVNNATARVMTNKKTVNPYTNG

B1: AUUCUGU (DNA:RNA)
RNA: GGGAGACCGGAAUUCAGAUUGUCCAUUCUGUUUAAAUCCCGUCGUAGCCACCA
DNA 1: CAATCTGAATTCCGGTCTCCC
DNA 2: TGGTGGCTACGACGGGATT
B2: ACCAUUC (DNA:RNA)
RNA: B1 RNA with U26C, U27C, C28A, G30U, U31C
DNA 1: CAATCTGAATTCCGGTCTCCC
DNA 2: TGGTGGCTACGACGGGATT
B3: AUACAGC (DNA:RNA)
RNA: B1 RNA with U27A, U29A, U31C
DNA 1: CAATCTGAATTCCGGTCTCCC
DNA 2: TGGTGGCTACGACGGGATT
B4: UUUAAUA (DNA:RNA)
RNA: B1 RNA with A25U, C28A, U29A, G30U, U31A
DNA 1: CAATCTGAATTCCGGTCTCCC
DNA 2: TGGTGGCTACGACGGGATT
B5: UUCUCCA (DNA:RNA)
RNA: B1 RNA with A25U, U27C, C28U, U29C, G30C, U31A
DNA 1: CAATCTGAATTCCGGTCTCCC
DNA 2: TGGTGGCTACGACGGGATT
B6: GACUGGC (DNA:RNA)
RNA: B1 RNA with A25G, U26A, U27C, C28U, U29G, U31C
DNA 1: CAATCTGAATTCCGGTCTCCC
DNA 2: TGGTGGCTACGACGGGATT
B7: GACGGAG (DNA:RNA)
RNA: GGGAGACCGGAAUUCAGAUUGUCCGACGGAGUUAAAUCCCGUCGUAGCCACCA
DNA 1: CAATCTGAATTCCGGTCTCCC
DNA 2: TGGTGGCTACGACGGGATT
B8: GAAGUAA (DNA:RNA)
RNA: B7 RNA with C27A, G29U, G31A
DNA 1: CAATCTGAATTCCGGTCTCCC
DNA 2: TGGTGGCTACGACGGGATT
B9: CGCUUAU (DNA:RNA)
RNA: B1 RNA with A25C, U26G, U27C, C28U, G30A
DNA 1: CAATCTGAATTCCGGTCTCCC
DNA 2: TGGTGGCTACGACGGGATT
B10: CAGUACC (DNA:RNA)
RNA: B7 RNA with G25C, C27G, G28U, G29A, A30C, G31C
DNA 1: CAATCTGAATTCCGGTCTCCC
DNA 2: TGGTGGCTACGACGGGATT
B11: AUGGUUA (DNA:RNA)
RNA: B1 RNA with U27G, C28G, G30U, U31A
DNA 1: CAATCTGAATTCCGGTCTCCC
DNA 2: TGGTGGCTACGACGGGATT
B12: CGCCAUA (DNA:RNA)
RNA: B1 RNA with A25C, U26G, U27C, U29A, G30U, U31A
DNA 1: CAATCTGAATTCCGGTCTCCC
DNA 2: TGGTGGCTACGACGGGATT
B13: AGCACCC (DNA:RNA)
RNA: B1 RNA with U26G, U27C, C28A, U29C, G30C, U31C
DNA 1: CAATCTGAATTCCGGTCTCCC
DNA 2: TGGTGGCTACGACGGGATT
B14: UUUCACC (DNA:RNA)
RNA: B1 RNA with A25U, U29A, G30C, U31C
DNA 1: CAATCTGAATTCCGGTCTCCC
DNA 2: TGGTGGCTACGACGGGATT
B15: AAACUUU (DNA:RNA)
RNA: B1 RNA with U26A, U27A, G30U
DNA 1: CAATCTGAATTCCGGTCTCCC
DNA 2: TGGTGGCTACGACGGGATT
B16: UGAUGGA (DNA:RNA)
RNA: B1 RNA with A25U, U26G, U27A, C28U, U29G, U31A
DNA 1: CAATCTGAATTCCGGTCTCCC
DNA 2: TGGTGGCTACGACGGGATT
B17: CUUGGCC (DNA:RNA)
RNA: B1 RNA with A25C, C28G, U29G, G30C, U31C
DNA 1: CAATCTGAATTCCGGTCTCCC
DNA 2: TGGTGGCTACGACGGGATT
B18: AGCACUG (DNA:RNA)
RNA: B7 RNA with G25A, A26G, G28A, G29C, A30U
DNA 1: CAATCTGAATTCCGGTCTCCC
DNA 2: TGGTGGCTACGACGGGATT
B19: GGCGUAA (DNA:RNA)
RNA: B7 RNA with A26G, G29U, G31A
DNA 1: CAATCTGAATTCCGGTCTCCC
DNA 2: TGGTGGCTACGACGGGATT
B20: UGAUACG (DNA:RNA)
RNA: B7 RNA with G25U, A26G, C27A, G28U, G29A, A30C
DNA 1: CAATCTGAATTCCGGTCTCCC
DNA 2: TGGTGGCTACGACGGGATT

target: T1, RBFOX1 RRM; assay: EMSA; HiTS-Eq, 1 nM pool, 10 min; buffer printed only for the single-RNA assays: 10 mM Tris pH 7.5, 150 mM NaCl, 3.4 mM EDTA, 0.001% NP-40, 30 C; details: tags: His6 N-terminal (pET28a); label: 5' 32P
Outline: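 Purified RbFox RRM (wild type or mutant) was equilibrated for 10 min in 50 µL with 1 nM of a 5′-radiolabelled pool of RNA with 7 randomized nucleotides, its flanks annealed to DNA oligonucleotides, across increasing protein concentrations. Free RNA was separated by 8% native PAGE, excised, reverse-transcribed, PCR-barcoded and sequenced on an Illumina HiSeq 2500. Relative association constants came from read-count changes of each variant against the control reaction, normalised to the cognate motif.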

| Binder | binding signal |
| --- | --- |
| B1 | 0.00886 KA relative to UGCAUGU |
| B2 | 0.00049 KA relative to UGCAUGU |
| B3 | 0.000179 KA relative to UGCAUGU |
| B4 | 0.00229 KA relative to UGCAUGU |
| B5 | 0.00424 KA relative to UGCAUGU |
| B6 | 0.0237 KA relative to UGCAUGU |
| B7 | 0.0118 KA relative to UGCAUGU |
| B8 | 0.00635 KA relative to UGCAUGU |
| B9 | 0.00715 KA relative to UGCAUGU |
| B10 | 0.00221 KA relative to UGCAUGU |
| B11 | 0.00772 KA relative to UGCAUGU |
| B12 | 0.00265 KA relative to UGCAUGU |
| B13 | 0.00759 KA relative to UGCAUGU |
| B14 | 0.00771 KA relative to UGCAUGU |
| B15 | 0.000979 KA relative to UGCAUGU |
| B16 | 0.00526 KA relative to UGCAUGU |
| B17 | 0.0188 KA relative to UGCAUGU |
| B18 | 0.00891 KA relative to UGCAUGU |
| B19 | 0.0126 KA relative to UGCAUGU |
| B20 | 0.0173 KA relative to UGCAUGU |

Source: PMC9911399, “Two distinct binding modes provide the RNA-binding protein RbFox with extraordinary sequence specificity”
